Measured values from patent publication US6482412B1, “Polypeptide having human HIV inhibitory activity, a gene encoding the polypeptide, a method to produce the polypeptide” (Gakkou Houjin Kitasato Gakuen, priority 1999, dated 2002).

Tests used:
Assay type in all cases: cell-based
[1] = tested on: syncytium formation by fusion of HeLa/CD4/LTR cells and HeLa135/env (T-tropic HIV-1)/Tat cells
Protocol: 50 μl of HeLa/CD4 /LTR cell suspension prepared to 1.6×10^5 cells/ml was inoculated into every each well of 96 well plate (IWAKI MICROPLATE 96well), and 10 μl of the sample, diluted in a series of concentration with phosphate buffer physiological saline, was added to every each well. Then, 50 μl of HeLa135/env(envelope glycoprotein: originated from T-tropic HIV-1)/Tat cell suspension prepared to 1.6×10^5 cells/ml was dispensed to every well, and incubated in an incubator at 37° C. under 5% CO2 air current for 24 hours. After removal of the culture fluid from each well, 20 μl of cell lysis solution was added to every each well, and the plate was left at the room temperature for about 10 minutes.
Continuously, 100 μl of chromogenic substrate solution (Z-buffer: 80 μl+4 mg/ml o-nitrophenyl-β-D-glactopyranoside:20 μl) was added to each well, and reacted in the incubator at 37° C. […] After 80 minutes, 25 μl of reaction stop solution (2M Na2CO3) was added to it, and the absorbance at 405 nm was measured using colorimeter (Organ ON SystemMicrowell System Reader 510). Syncytium formation ability was calculated from the obtained absorbance by the following formula.
Syncytium formation ability=the absorbance of the well with sample addition/absorbance of control×100

HIV infected MT-4 cell = assay: Anti-HIV activity by suppression of cytopathic effect, MTT method; details: HIV infected MT-4 cells, five days, read-out: BC50 (the source's name)
Protocol: (§1) Anti-HIV activity was measured from suppression of cytopathic effect caused by HIV infection. The HIV infected MT-4 cell (2.5×10^4 cells/well, degree of multiple infection: 0.01) was added to 96 well titer plate immediately after infection. At the same time, K97-0003 peptide of various concentration was also added to the plate. In order to examine cytopathic effect of K97-0003 peptide on MT-4 cell, cells uninfected by HIV was incubated with K97-0003 peptide of various concentrations in the same manner. After five days of incubation at 37° C. in a CO2 incubator, the number of cell survived was measured by MTT method.
(1) EC50: It is the concentration of K97-0003 peptide which inhibits 50% of the cytotoxicity by HIV infection, and is the parameter of anti-HIV activity of the peptide.

MT-4 cell = assay: Cytotoxicity on uninfected MT-4 cells, MTT method
Protocol: as §1
(2) CC50: It is the concentration of K97-0003 peptide that causes cytotoxicity to 50% of cells, and is the parameter of cytotoxic effect of the peptide.

T-tropic HIV III B = assay: Anti-HIV activity by MAGI assay, III B; details: read-out: Infection preventive activity (IC50nM)
Protocol: (§2) Furthermore, the anti-HIV activity of K97-0003 peptide was measured by MAGI assay (The multinuclear activation of a galactosidase indicator), which can evaluate activation of a gene using β-galactosidase activity as an indicator. The cells were transformed by CD4 gene and CCR5 gene, the coreceptor of HIV. Moreover, LTR (long terminal repeat) of HIV and β-galactosidase gene were further introduced into the transformed cells. Such cells were used for this assay. In such cells, β-galactosidase is activated accompanied with HIV infection of the cell. Therefore, infection of HIV can be measured by color development of X-gal (5-bromo-4-chloro-3-indolyl-β-galactoside), which is the substrate of β-galactosidase. MAGI assay was performed according to the method of R. Arakaki et al. (R. Arakaki et al., Jounal of Virology, Vol.73, No.2, p1719-1723) and the method of J. Kimpton et al. (J. Kimpton et al., Jounal of Virology, Vol.66, No.4, p2232-2239).

T-tropic HIV NL4-3 = assay: Anti-HIV activity by MAGI assay, NL4-3; details: read-out: Infection preventive activity (IC50nM)
Protocol: as §2

M-tropic HIV JR-CFS = assay: Anti-HIV activity by MAGI assay, JR-CFS; details: read-out: Infection preventive activity (IC50nM)
Protocol: as §2

HIV-2 ROD = assay: Anti-HIV activity by MAGI assay, ROD; details: read-out: Infection preventive activity (IC50nM)
Protocol: as §2

HIV-2 EHO = assay: Anti-HIV activity by MAGI assay, EHO; details: read-out: Infection preventive activity (IC50nM)
Protocol: as §2

B1: K97-0003 peptide: polypeptide having the amino acid sequence of SEQ.ID.NO.1, purified from culture fluid of actinomycete strain K97-0003, about 14 KDa (protein)
chain: ASVTIRNAQTGRLLDSNYNGNVYTLPANGGNYQRWTGPGDGTVRNAQTGRCLDSNYDGAVYTLPCNGGSYQKWLFYSNGYIQNVETGRVLDSNYNGNVYTLPANGGNYQKWYTG
modifications: Actinomyces K97-0003 Strain
With B1 the IC50 ([1]; HeLa/CD4/LTR + HeLa135/env/Tat cells, 24 hours, read-out: IC50 of syncytium formation ability) was 0.06 µM, the “IC50 of syncytium formation ability” value ([1]; same IC50 in mass concentration (in parentheses)) was “(0.8 μg/ml” and the EC50 (HIV infected MT-4 cell) was 0.23 µM. For the same molecule, the CC50 (MT-4 cell) was over 8 µM, the IC50 (T-tropic HIV III B) was 2 nM and the IC50 (T-tropic HIV NL4-3) was 16 nM. It also gave an IC50 (M-tropic HIV JR-CFS) of 38 nM, an IC50 (HIV-2 ROD) of 14 nM and an IC50 (HIV-2 EHO) of 3.7 nM.
